# Measurements taken from article PMC4336329 (PLoS ONE, 2015).
# Among all 310,000 compounds or so, about 14,000 (4.5%) showed an effect of 50% or more. The effect is printed as a negative number. The list shows a part of the results.
# Target: human ether-à-go-go-related gene (hERG) potassium channel (human, UniProt Q12809)
# Assay: primary screen, population patch clamp on CHO cells stably expressing hERG
# 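Further: peak tail current of the secondary pulse compared with the same well before compound.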
# Sequence of human ether-à-go-go-related gene (hERG) potassium channel (Q12809 whole entry, looked up): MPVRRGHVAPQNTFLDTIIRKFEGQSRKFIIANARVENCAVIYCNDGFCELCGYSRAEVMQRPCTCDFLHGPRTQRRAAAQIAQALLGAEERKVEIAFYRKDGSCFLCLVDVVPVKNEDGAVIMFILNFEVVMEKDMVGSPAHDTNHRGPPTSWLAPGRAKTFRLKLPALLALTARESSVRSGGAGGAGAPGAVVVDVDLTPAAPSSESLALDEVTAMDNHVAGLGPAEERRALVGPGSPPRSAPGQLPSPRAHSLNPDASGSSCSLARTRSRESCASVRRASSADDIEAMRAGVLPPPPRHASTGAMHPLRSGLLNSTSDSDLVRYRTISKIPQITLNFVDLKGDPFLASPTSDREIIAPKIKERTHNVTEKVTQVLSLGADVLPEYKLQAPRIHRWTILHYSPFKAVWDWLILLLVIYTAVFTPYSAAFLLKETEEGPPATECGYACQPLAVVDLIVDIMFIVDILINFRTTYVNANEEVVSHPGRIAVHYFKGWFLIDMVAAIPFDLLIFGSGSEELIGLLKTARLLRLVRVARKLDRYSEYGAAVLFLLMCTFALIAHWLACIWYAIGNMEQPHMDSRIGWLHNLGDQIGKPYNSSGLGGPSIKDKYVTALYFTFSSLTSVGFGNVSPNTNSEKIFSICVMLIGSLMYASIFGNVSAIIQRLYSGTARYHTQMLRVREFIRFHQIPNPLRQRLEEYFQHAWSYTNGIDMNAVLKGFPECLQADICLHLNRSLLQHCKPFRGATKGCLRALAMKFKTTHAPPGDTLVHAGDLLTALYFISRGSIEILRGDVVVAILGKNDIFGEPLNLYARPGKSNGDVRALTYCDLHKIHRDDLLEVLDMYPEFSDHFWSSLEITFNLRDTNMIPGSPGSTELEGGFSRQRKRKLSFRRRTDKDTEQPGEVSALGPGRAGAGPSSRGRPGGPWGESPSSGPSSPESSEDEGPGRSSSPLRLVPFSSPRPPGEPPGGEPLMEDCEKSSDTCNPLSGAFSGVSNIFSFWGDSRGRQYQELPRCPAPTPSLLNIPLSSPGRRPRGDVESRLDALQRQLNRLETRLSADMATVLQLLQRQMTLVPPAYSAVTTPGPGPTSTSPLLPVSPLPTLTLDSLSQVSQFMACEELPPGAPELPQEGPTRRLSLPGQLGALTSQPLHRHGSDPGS
row,Structure (SMILES),"hERG current change (%, negative = inhibition) at 10uM"
1,CCOC(=O)Cc1cc(=O)n2[nH]c(C)c(-c3ccccc3OC)c2n1,12%
2,O=[N+]([O-])c1cccnc1NCCc1c[nH]c2ccccc12,17.3%
3,CCn1c(=O)n(CC)c2cc(S(N)(=O)=O)c(C)cc21,2.51%
4,COC(=O)c1[nH]c2ccccc2c1NC(=O)CN1CCC(C(N)=O)(N2CCCCC2)CC1,-35.1%
5,OC1COC(OCc2ccccc2)C(O)C1O (centres unmarked),19.3%
6,COc1ccc(CNC(=O)[C@H](C)[C@@H]2C[C@@]2(C)[C@@H](NC(=O)OCc2ccccc2)c2ccccc2)cc1OC,-35.7%
7,O=C(NNS(=O)(=O)c1cccc(Cl)c1Cl)c1cccc(S(=O)(=O)N2CCOCC2)c1,-16.9%
8,COc1cccc(C2C3=C(CC(C)(C)CC3=O)OC(N)=C2[N+](=O)[O-])c1 (centres unmarked),3.82%
9,CN1C=CC=C/C1=C(\C#N)c1nc2ccccc2[nH]1,-28.5%
10,COc1ccc(N)cc1-n1c(C)ccc1C,14.5%
11,COC(=O)c1c(C)[nH]c(C(=O)/C=C/c2ccccc2F)c1C,7.77%
12,COc1ccc(S(=O)(=O)NC(C)CCc2ccccc2)cc1 (centres unmarked),-3.49%
13,Cc1ccc(-n2c(SCC(N)=O)nnc2-c2ccccn2)cc1,1.91%
14,N=C(N)n1c(N)nc2ccccc2c1=O,15%
15,c1ccc(N2CCN(c3nc4cc5c(cc4s3)OCO5)CC2)cc1,-11.2%
16,O=C(O)C1CC(=O)N(c2ccc(OCc3ccc(Cl)cc3Cl)cc2)C1 (centres unmarked),-13%
17,CN1CCN(C(=O)c2ccc(Oc3ccc([N+](=O)[O-])cc3)cc2)CC1,-50.6%
18,Cc1ccc(S(=O)(=O)N/N=C/c2ccc(O)c(O)c2)cc1[N+](=O)[O-],18%
19,CN(CC(=O)Nc1ccc(F)cc1)C(=O)CCc1ccccc1,10.6%
20,CCC(C)C(=O)Nc1nc(C)c(-c2csc(Nc3cc(OC)ccc3OC)n2)s1 (centres unmarked),6.52%
21,CCn1nc(C)cc1Nc1ccccc1,-8.17%
22,CN1CCN(C(=O)c2ccc(CS(=O)Cc3ccc(Cl)cc3)o2)CC1 (centres unmarked),13.1%
23,CNC(=O)C(=O)Nc1cc2c3c(c1)C(C)C(=O)N3CCC2 (centres unmarked),7.26%

row,Structure (SMILES),"hERG current change (%, negative = inhibition) at 10uM"
1,CCSC1=NCCN1S(=O)(=O)c1ccccc1,-4.34%
2,CCOc1ccc(CN2CCN(Cc3c[nH]c4ccccc34)CC2)cc1.O=C(O)C(=O)O,-84.4%
3,CN1CCC(O)(c2ccc(Cl)cc2)C(C(=O)c2ccc(Cl)cc2)C1 (centres unmarked),-67.7%
4,Cc1ccc[n+](/C(C(=S)NCc2ccco2)=C(/[O-])c2ccccc2Cl)c1,-24.6%
5,COc1cc(CO)ccc1OCC(=O)N1CCc2ccccc21,9.76%
6,O=C(O)Cn1cc(/C=C2\C(=O)NC(=O)N(c3ccc(F)cc3)C2=O)c2ccccc21,12.4%
7,Cc1ccc2nc(Cl)c(C3CC(c4cccs4)=NN3S(C)(=O)=O)cc2c1 (centres unmarked),24.3%
8,CN1CCN(C(=O)CN(C2CCCCC2)S(=O)(=O)c2ccc(Br)cc2)CC1,-11.8%
9,CS(=O)(=O)N1CCC(C(=O)Nc2cccc(Br)c2)CC1,-9.04%
10,Cc1onc(-c2ccccc2)c1C(=O)N/N=C/c1cc(Br)c(Br)o1,-0.967%
11,O=C(COC(=O)c1cccnc1)c1ccc(Cl)cc1,4.51%
12,COC(=O)Nc1cc(C(=O)c2ccc(Cl)cc2Cl)c[nH]1,1.09%
13,COc1cc2cc(CN(CCCN3CCOCC3)C(=O)Nc3ccc(F)cc3)c(=O)[nH]c2cc1OC,-33.2%
14,COc1ccc(Cl)cc1C(=O)NCCN(C)C,4.57%
15,CCOCCCNC(=S)NCCc1ccccc1,28.3%
16,Cc1cccc(Nc2nc(N)nc(CC(=O)CSc3ccc(Cl)cc3)n2)c1,4.27%
17,O=C(NCc1cccc(F)c1)C1CCC(=O)N(CCc2cccc(F)c2)C1 (centres unmarked),-30.7%
18,Cl.O=C(c1cc2c(s1)CCCC2)N1CCN(Cc2ccc3c(c2)OCO3)CC1,-54.2%
19,Cc1cc(C)c(NC(=O)C2CC(=O)N(c3ccc4c(c3)OCCO4)C2)c(C)c1 (centres unmarked),-8.92%
20,CCOC(=O)C1=C(C)NC(C)=C(C(=O)OCC)C1c1ccc(OC)cc1,-14.2%
21,CC(C)(C)C(=O)Nc1ccc(C(=O)CSc2nnc(C3CC3)n2C2CC2)cc1,3.48%
22,O=C(CNS(=O)(=O)c1ccccc1)OCC(=O)c1ccc(F)cc1,10.9%
23,CCOC(=O)C1CCCN(Cc2sccc2C)C1 (centres unmarked),-16.7%

row,Structure (SMILES),"hERG current change (%, negative = inhibition) at 10uM"
1,O=c1cc(-c2ccco2)nc(SCc2cccc(Cl)c2)[nH]1,22.4%
2,O=C(CN1C(=O)CC(c2ccco2)Sc2ccccc21)Nc1ccc2c(c1)OCCO2 (centres unmarked),-6.73%
3,COc1ccc(S(=O)(=O)NCCSCc2cccc(C)c2)cc1Br,-0.641%
4,Cc1ccc(C)c(S(=O)(=O)N2CCN(C(=O)C(C)Sc3ccccc3)CC2)c1 (centres unmarked),-10.4%
5,Cc1ncc(CO)c(/C=N/NC(=S)Nc2ccc(Cl)c(Cl)c2)c1O,11.9%
6,Cc1nn(-c2ccc(N3CCCCC3)nn2)c(C)c1CCC(=O)Nc1ccccc1F,1.88%
7,COCCCNCCOc1cc(C(C)C)ccc1C,-14.1%
8,COC(c1ccccc1)c1nnc(CCC(=O)N(C)CCCC2CCCC2)o1 (centres unmarked),-2.44%
9,Cc1ccccc1C(=O)Nc1nnc(S(=O)(=O)N2CCCCC2)s1,3.83%
10,COc1ccccc1CC(=O)Nc1cccc(S(=O)(=O)N2CCOCC2)c1,4.54%
11,COC(=O)c1cc2c(C)c(C)c3ccccn3c-2c1C(=O)OC,16%
12,O=C(Cn1nnc(-c2ccccc2)n1)N1CCCCC1,15%
13,COc1ccc(S(=O)(=O)N/N=C\c2ccc3c(c2)OCO3)c(OC)c1,8.48%
14,Cc1onc(-c2c(F)cccc2Cl)c1C(=O)Nc1nnc(C2CC2)s1,3.74%
15,COc1cccc(C2=NOC(C(=O)NCc3ccc(F)cc3)C2)c1 (centres unmarked),-16.2%
16,CCc1ccc(C2NC(=O)c3ccccc3O2)cc1 (centres unmarked),1.84%
17,Cc1ccc(C)c(-n2c(SCC(=O)NCC3CCCO3)nnc2-c2ccoc2C)c1 (centres unmarked),6.82%
18,CCOC(=O)COc1c(Cl)cc(C2NC(=S)NC(c3ccccc3)=C2C(C)=O)cc1OC (centres unmarked),-18.9%
19,Fc1ccc(NC(=S)Nc2cccc3ccccc23)cc1F,8.71%
20,C1CCc2c(nc3nnnn3c2NC2CCCC2)C1,0.307%
21,Cc1sc2nc(SCC(=O)N(C)c3ccccc3)n(C)c(=O)c2c1C,-8.65%
22,CC12CCC(C(=O)N(NC(=O)c3ccccc3Cl)C1=O)C2(C)C (centres unmarked),10.5%
23,CCN(CCO)Cc1cn[nH]c1-c1ccc(C)c(C)c1,9.28%

row,Structure (SMILES),"hERG current change (%, negative = inhibition) at 10uM"
1,CCC(=O)N1N=C(c2cccs2)CC1c1ccc(OC)cc1 (centres unmarked),15.9%
2,Fc1ccc(-c2nc3ccccc3c3nc4ccccc4n23)cc1,4.01%
3,CC(=O)Nc1cccc(-c2nc3ccccc3s2)c1C,-0.0879%
4,Cc1ccc(S(=O)(=O)NC(CN2CCOCC2)=NCCNS(=O)(=O)c2ccccc2)cc1,-0.0753%
5,Cc1ccc(NC(=O)CNC(=O)c2cccs2)c(O)c1,15.1%
6,Cc1ccccc1C(=O)N1CCC(C(=O)N(C)CC(=O)Nc2cccc(F)c2)CC1,12.4%
7,CCN(CC)P(=O)(c1n(CC)cc[n+]1CC)N(CC)CC.[I-],15.1%
8,O=C(NCCCN1CCOCC1)c1ccccc1NS(=O)(=O)c1ccc(F)cc1,-41.5%
9,NC(=O)COC(=O)c1cccc(S(=O)(=O)N2CCCCC2)c1,7.71%
10,COC(=O)c1sc(-c2ccccc2)cc1NC(=O)c1cc(OC)cc(OC)c1,14%
11,O=C(CCn1c(=S)[nH]c2ccccc2c1=O)N1CCCCC1,1.66%
12,Cc1ccc(S(=O)(=O)N2CCCCC2CCNC(=O)C(=O)NC2CCCC2)cc1 (centres unmarked),-37.5%
13,CC(=O)c1c(N2CCN(c3ccccn3)CC2)nc(=S)n(-c2ccccc2)c1C,-32.3%
14,O=C(Cn1cnc2sc3c(c2c1=O)CCCC3)NCC(=O)Nc1ccccc1F,15.2%
15,COC(=O)CN(c1ccc(OC)cc1OC)S(=O)(=O)c1ccccc1[N+](=O)[O-],-13.5%
16,CCOC(=O)c1cc2c(ccn2C)n1Cc1ccc(C#N)cc1,-34.2%
17,O=C(Cc1ncc(C(F)(F)F)cc1Cl)N1CCN(c2ccccn2)CC1,-17.2%
18,O=C1C2C(C(=O)N1CCc1ccccc1)C1C=CC2C12CC2 (centres unmarked),4.41%
19,COc1cc(/C=N/NC(=O)C(Cc2c[nH]c3ccccc23)NC(=O)OCC(C)C)cc([N+](=O)[O-])c1OCc1ccccc1 (centres unmarked),6.01%
20,Cc1cc(Cl)ccc1C(=O)C1CCCN(C(=O)c2snnc2C)C1 (centres unmarked),-56.1%
